# Experimental data as given in the supplement of paper PMC3334620.
# The full ranking holds about 33,000 sequences; the median of “E-score (-0.5 to 0.5)” is about -0.053, and the highest 2% start at about 0.37. The list shows a part of the results.
# Biological target: Hap1 (UniProt P0CE41)
# Assay: PBM E-score (8-mer binding enrichment) (E-score (-0.5 to 0.5)); higher = stronger / more preferred TF binding; most listed sequences are background and not binding sites
# Details: protein concentration: 200 nM; construct: GST-DNA-binding domain
# Outline: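 The E-score, a modified Wilcoxon-Mann-Whitney statistic, was computed by the Universal PBM Analysis Suite for every ungapped eight-base word pooled with its reverse complement. Scans behind it were normalised with masliner after bound GST-tagged yeast transcription factors were detected with fluorescent anti-GST. The proteins, at about 100-200 nM, had been applied to universal all-10-mer Agilent arrays made double-stranded by primer extension.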
# Chain of UniProt P0CE41 (P0CE41 whole entry): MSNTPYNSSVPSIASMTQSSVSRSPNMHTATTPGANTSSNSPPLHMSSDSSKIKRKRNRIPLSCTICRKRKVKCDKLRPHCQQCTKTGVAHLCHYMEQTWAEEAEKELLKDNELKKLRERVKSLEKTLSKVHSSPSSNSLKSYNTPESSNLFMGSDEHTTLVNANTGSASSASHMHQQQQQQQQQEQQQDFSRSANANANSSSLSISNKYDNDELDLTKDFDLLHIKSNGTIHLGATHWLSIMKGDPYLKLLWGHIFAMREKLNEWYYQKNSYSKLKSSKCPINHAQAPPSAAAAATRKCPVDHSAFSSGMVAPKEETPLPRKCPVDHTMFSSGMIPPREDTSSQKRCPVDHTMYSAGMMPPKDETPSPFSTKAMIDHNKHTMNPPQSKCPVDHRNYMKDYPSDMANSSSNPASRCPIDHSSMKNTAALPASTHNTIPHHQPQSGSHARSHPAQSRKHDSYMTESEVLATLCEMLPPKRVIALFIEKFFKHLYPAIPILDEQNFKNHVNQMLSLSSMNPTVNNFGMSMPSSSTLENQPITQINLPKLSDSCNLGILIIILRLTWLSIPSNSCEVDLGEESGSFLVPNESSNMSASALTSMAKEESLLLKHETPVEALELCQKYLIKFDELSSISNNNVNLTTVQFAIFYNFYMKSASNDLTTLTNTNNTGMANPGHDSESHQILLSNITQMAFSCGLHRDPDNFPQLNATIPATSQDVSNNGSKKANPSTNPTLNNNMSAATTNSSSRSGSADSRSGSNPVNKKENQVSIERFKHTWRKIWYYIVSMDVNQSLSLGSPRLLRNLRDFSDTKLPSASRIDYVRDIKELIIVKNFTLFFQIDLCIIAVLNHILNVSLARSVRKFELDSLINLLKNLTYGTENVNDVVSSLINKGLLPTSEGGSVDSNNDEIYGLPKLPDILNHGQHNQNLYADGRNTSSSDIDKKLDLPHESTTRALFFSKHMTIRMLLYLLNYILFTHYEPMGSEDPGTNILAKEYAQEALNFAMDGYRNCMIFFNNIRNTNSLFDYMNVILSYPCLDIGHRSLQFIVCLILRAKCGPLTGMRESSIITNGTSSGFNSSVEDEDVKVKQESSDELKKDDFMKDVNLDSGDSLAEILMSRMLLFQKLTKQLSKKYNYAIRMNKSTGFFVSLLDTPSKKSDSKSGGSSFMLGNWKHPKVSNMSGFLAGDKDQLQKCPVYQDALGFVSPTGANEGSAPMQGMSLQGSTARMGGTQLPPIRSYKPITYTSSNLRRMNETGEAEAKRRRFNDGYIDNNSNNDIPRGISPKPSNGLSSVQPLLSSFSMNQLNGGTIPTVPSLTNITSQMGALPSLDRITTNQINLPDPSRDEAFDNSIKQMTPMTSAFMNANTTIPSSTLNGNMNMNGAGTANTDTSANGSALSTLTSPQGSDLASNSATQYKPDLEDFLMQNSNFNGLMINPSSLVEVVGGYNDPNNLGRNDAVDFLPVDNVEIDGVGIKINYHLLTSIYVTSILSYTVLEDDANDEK
row,Sequence,PBM E-score
1,AAGCGCGC,0.188
2,ACGTGCTG,-0.155
3,TCCTAGAA,0.00753
4,ATAGGGCC,0.0603
5,TCCGGGCA,0.324
6,CCGAGTTC,0.312
7,CCTCGATC,-0.148
8,CGATACGC,0.225
9,CTGTGCCC,-0.138
10,AGTGTTCA,0.069
11,GAGGAGAC,-0.0943
12,ACCCGTCC,0.105
13,CCTTTAGC,-0.0456
14,CATACCGC,0.187
15,AGCTCGTG,0.0127
16,GCCTCCAC,-0.206
17,ACCGATCC,0.3
18,CTGCACGA,-0.316
19,AAACGTTT,0.185
20,AATGGGGA,-0.0712
21,GTCACCAA,-0.302
22,TGGGGGAA,-0.216
23,CCACGGTA,0.146
24,ACGCGCTG,-0.126
25,GACACAAC,-0.0229

row,Sequence,PBM E-score
1,AAACAGTA,-0.152
2,GCATATGA,-0.0509
3,AAGAGTTA,-0.135
4,AATGGGCG,-0.0792
5,CGAGCCTA,-0.0101
6,TGGTGTAA,-0.205
7,CACTCCCA,-0.168
8,AAACTACG,0.118
9,AACTAAAA,0.0312
10,AACGTATA,-0.149
11,CGCATGAG,-0.262
12,ATTACAAT,-0.108
13,ATTCGTCG,0.0882
14,CGTTCGAA,-0.00961
15,AATGCAGA,-0.107
16,CCCCTCGC,-0.0968
17,GGACTACA,0.0421
18,GCTGATAA,0.129
19,CGGAAAAC,0.346
20,CATAGATC,-0.154
21,GAGCGGTA,0.0947
22,CTTCGTCC,0.0401
23,ACAAAAGA,-0.0907
24,ATGGGTAC,-0.297
25,TAAAGCGA,0.129

row,Sequence,PBM E-score
1,AACCATCT,-0.109
2,AGTTTAGG,-0.273
3,CACGATGC,-0.181
4,TCTTGTCA,-0.139
5,CGATAATA,0.306
6,TAAATTTA,0.133
7,AACGTCCG,0.371
8,GATCACTA,-0.011
9,AGTCCGCA,0.293
10,CGTCCGTC,0.234
11,GTGGAGAA,-0.143
12,TACGCGTA,0.21
13,CCTTCGCA,-0.197
14,ACTACGAA,-0.276
15,GTTCCCTA,-0.0618
16,GCTACCTA,-0.0732
17,GTGATGCA,-0.103
18,AAACGGCC,0.283
19,CGGGTTGA,0.0475
20,CCTGGAAA,-0.122
21,ACGCAACA,-0.0464
22,GATCACCA,-0.0532
23,CTCAGCAC,-0.18
24,CACCAGCA,-0.272
25,ACATCCGT,0.213

row,Sequence,PBM E-score
1,ATGGCTGG,-0.197
2,CCGGGGTC,0.312
3,ATCAAGGC,-0.142
4,CCCTTTAG,-0.335
5,CTACTAGA,-0.137
6,AAGACGAA,-0.232
7,ATCTCTCC,-0.0103
8,TAATGCAA,-0.241
9,CAAATATG,-0.0929
10,CTAACCAG,-0.199
11,GCCAACGC,-0.082
12,GATCAATC,0.0308
13,AAACAGGA,-0.229
14,CCGTAGGA,-0.0521
15,CAGCGCTG,-0.0399
16,ACCGTTTC,0.0396
17,CTACCGTA,-0.0214
18,AAGTCTGT,-0.265
19,GACCGCCC,0.0879
20,CGGGTTGC,0.09
21,AAATAAAC,-0.023
22,ATACGAAG,-0.0294
23,CCGACAGC,0.229
24,CCGCAATC,0.342
25,AGAGTCTC,-0.185

row,Sequence,PBM E-score
1,CCTTAACA,-0.11
2,AGGGGATA,-0.167
3,ATTTAGTG,-0.0559
4,ATGATATA,-0.211
5,CTACTCCC,-0.105
6,AGGTGTAT,-0.094
7,ATAGCACA,-0.00774
8,ACGGTTAC,0.159
9,CGTAAACG,0.00754
10,CTTGGGAC,-0.133
11,ATACAAAT,0.148
12,TAATAGCA,-0.119
13,ACTGTTGG,-0.231
14,GCCCCCGA,0.2
15,ATTTCTTA,0.00138
16,AGACGAAT,-0.317
17,CGATGAAG,0.0796
18,AAGCATCG,0.133
19,ACCGATCT,0.274
20,ATCTTCCG,0.314
21,ATCGCCGC,0.286
22,GTCCGCGA,0.227
23,AAGGTGCC,0.0359
24,GGCCTCCA,-0.0227
25,GTTGATAA,-0.146

row,Sequence,PBM E-score
1,GAGAATGA,-0.137
2,ACGGCTTC,0.013
3,CTGCAGCC,-0.146
4,CGACCACG,0.0929
5,AAGCTGAA,0.0178
6,ATCGAGTG,0.0192
7,ACTTGCCG,-0.03
8,GGAGCACC,0.101
9,AGTATGGC,-0.0271
10,CTGACAAC,-0.222
11,ATCAGGAC,-0.166
12,AGGTTTCG,0.0492
13,GGACGGCA,0.162
14,CGGATCGC,0.147
15,GTGTGACA,-0.152
16,AATGCGCC,0.225
17,CCATTTTA,0.177
18,GGAAGGCA,-0.144
19,CGTGGCCA,-0.199
20,AACTTTCT,0.129
21,ATTTCTCC,0.223
22,ATAGTAGC,0.0136
23,ATAGACGA,-0.232
24,CCATGAAG,-0.132
25,GCGCACTA,0.0752

row,Sequence,PBM E-score
1,GCGCGCCC,0.146
2,AAGTGAAA,-0.0457
3,CTACAACA,-0.0881
4,ACTATTGC,0.0581
5,GAAACATA,0.00213
6,AGGATGTC,-0.0998
7,CGATGACA,-0.0139
8,CTGGCGGA,-0.0445
9,CTAGCCCA,-0.152
10,AGTTCAGA,-0.211
11,AGGACCTG,-0.0537
12,CGCTCACA,0.00505
13,ATCAGCTA,-0.149
14,CCGTTTGA,0.134
15,CCGTCTGA,-0.0177
16,ACTTAAGA,0.112
17,GTGCGGCA,0.0804
18,ACAATAGC,-0.13
19,TCAGGAGA,-0.0711
20,CCGTAACG,0.169
21,GAGGGAAC,0.0745
22,GAGGTAAA,0.0266
23,ACGGTATA,0.0727
24,GGAGAGCC,-0.00118
25,AACGTGTC,-0.127

row,Sequence,PBM E-score
1,CCGCTCAC,0.0696
2,ATCCTGCC,-0.0978
3,ACGTTGGG,-0.249
4,GCTTACAC,-0.106
5,GGAACAAC,0.192
6,AAAATTCC,0.26
7,CACGAAGC,-0.0951
8,ACTTGCCT,-0.0546
9,GTTTCCCA,-0.134
10,GATGCGAC,0.13
11,CGCGGCAC,0.0706
12,GAAACGTA,-0.151
13,CCGAGGAC,0.302
14,ACAGTCGT,-0.276
15,GAACAGCA,0.0236
16,GTGGCGAA,0.0646
17,ATGACAAC,-0.0114
18,GCTCAACA,-0.185
19,AAGCGACT,-0.223
20,TGCATAAA,-0.0692
21,GGTTGTCA,-0.136
22,AGGACCTC,-0.205
23,AAGACTCT,-0.297
24,GCATTTGA,0.0798
25,ACTTCGTC,0.0269

row,Sequence,PBM E-score
1,AGTTCCGA,0.395
2,ACGGGGTA,-0.0439
3,CCGACTTC,0.172
4,CCTATAGG,-0.0781
5,CACCGCCC,0.275
6,CTTGCTGA,-0.178
7,CGCGAGTC,0.105
8,CGAGTGTA,-0.109
9,ACACGGAT,0.209
10,CTAGGACA,-0.22
11,ACAATACT,-0.0811
12,AAGCTTCA,-0.0857
13,CTTAATCA,0.0547
14,AGCAGCGA,-0.0162
15,AACGTTGC,-0.099
16,ACGACATA,-0.279
17,GCAAACCC,0.119
18,GTAAGGGA,0.0397
19,AAACGGGT,0.132
